Assay results reported in PubChem BioAssay AID1476 (National Center for Advancing Translational Sciences (NCATS), 2009).
About 4,500 (2.2%) of roughly 200,000 compounds were called active. Inconclusive results, whose numbers are uncertain, are shown with a selection of clear calls. Calls come from the whole dose curve; as a rule, active = well fitted inhibition curve with a large enough effect; inconclusive = small, poorly fitted or top-dose-only effect, or effect the other way; inactive = flat fitted curve, though single readings scatter. A potency beside an inconclusive call is a rough fit, not a confirmed value. Some structures have more than one record in an assay (separate samples or runs), and their calls can disagree.

Biological target: Cruzipain (Trypanosoma cruzi) (UniProt P25779)
Assay: qHTS Assay for Promiscuous and Specific Inhibitors of Cruzain (without detergent); note: nearly all actives have a fitted effect of over 40% in size;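 for max response, negative = inhibition: plate controls were enzyme without inhibitor for no effect and buffer without enzyme for full effect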
Settings: purified cruzain, Z-FR-AMC fluorescence, no detergent
Summary of the method: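 Purified cruzain at 1.5 nM, pre-incubated 15 min with compound at room temperature in 100 mM sodium acetate pH 5.5, 5 mM DTT, 0.00005% Triton X-100. Reaction started with 2 uM Z-FR-AMC; AMC fluorescence increase over 60 s gives rate.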
Potency is the fitted concentration of half-maximal effect; tags give direction and shape of the fitted curve.

UniProt P25779, sequence (P25779 whole entry, looked up): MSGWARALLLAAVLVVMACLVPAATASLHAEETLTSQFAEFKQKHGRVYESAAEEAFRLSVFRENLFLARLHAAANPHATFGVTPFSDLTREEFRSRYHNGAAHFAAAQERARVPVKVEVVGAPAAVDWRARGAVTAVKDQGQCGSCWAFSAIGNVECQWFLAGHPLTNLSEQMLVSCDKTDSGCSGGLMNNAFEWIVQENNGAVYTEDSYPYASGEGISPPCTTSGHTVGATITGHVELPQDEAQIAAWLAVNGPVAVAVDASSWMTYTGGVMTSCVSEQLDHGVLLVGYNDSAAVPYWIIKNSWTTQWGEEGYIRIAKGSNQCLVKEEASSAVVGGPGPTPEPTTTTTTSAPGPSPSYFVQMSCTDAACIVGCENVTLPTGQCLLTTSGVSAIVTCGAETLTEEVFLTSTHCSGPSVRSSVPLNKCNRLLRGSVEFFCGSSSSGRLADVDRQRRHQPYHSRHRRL

Compound | Potency | max response, negative = inhibition
CCCCNC(=O)C(CC)Sc1nnc(-c2ccc(OC)c(OC)c2)c(-c2ccc(OC)c(OC)c2)n1 (centres undefined) | inconclusive: 39.8 µM [activator, single point] | 
CN(Cc1cnn(C)c1)C(=O)c1sc2cccc(Cl)c2c1Cl | inconclusive: 39.8 µM [activator, single point] | 
COc1ccc(-c2nc3c(c(=O)[nH]c(=O)n3Cc3ccccc3)n2C)cc1 |  | inactive: -8.51%
COC(=O)c1ccc(Cn2c(SCc3cccc(C)c3)nc3ccncc32)cc1 | inconclusive: 39.8 µM [activator, single point] | 
COc1ccc(Oc2ncc3nc(-c4cccs4)c(=O)n(CCC#N)c3n2)cc1 | inconclusive: 31.6 µM [inhibitor, single point] | 
CC(=O)c1cccc(NS(=O)(=O)c2c(C)nc3sc(C)cn3c2=O)c1 |  | inactive: 0.252%
CCCN=C1N/C(=C\c2ccco2)C(=O)N1c1ccccc1 |  | inactive: -11.8%
CCOC(=O)c1c(S(=O)(=O)NCC(=O)N2CCN(c3ccccc3OC)CC2)c(C)n(C)c1C | inconclusive: 39.8 µM [activator, single point] | 
CCC(C)[C@H](NC(=O)NCc1cccc(OC)c1)C(=O)OC (some centres undefined) |  | inactive: 0.611%
COc1ccc(CCNC(=O)NCc2noc3ccc(C)cc23)c(OC)c1 |  | inactive: -19.2%
N#C/C(=C\N1CCN(Cc2ccc3c(c2)OCO3)CC1)c1nc2ccccc2s1 | active: 31.6 µM | 
NC(N)=NC[C@H](N)C(=O)O |  | inactive: -5.88%
CCOC(=O)c1cccc(NC(=O)CCCn2c(C)c3cnn(-c4ccccc4)c(=O)c3c2C)c1 | inconclusive: 39.8 µM [activator, single point] | 
C/C(=N\NC(=S)NC1CCCCC1)c1ccc(C#N)cc1 | inconclusive: 31.6 µM [inhibitor, single point] | 
CCc1ccccc1N(CC(=O)N1CCN(c2ccc(F)cc2)CC1)S(C)(=O)=O | inconclusive: 39.8 µM [activator, single point] | 
CC(C)c1ccc(NC(=O)c2cccn2-c2nnc(N3CCCCC3)s2)cc1 |  | inactive: -0.154%
CC(C)OCCCNC(=O)c1c(N)n(/N=C/c2cccs2)c2nc3ccccc3nc12 | inconclusive: 39.8 µM [activator, single point] | 
CCOc1ccc(-c2cc(N)n(S(=O)(=O)c3ccc(OC)c(OC)c3)n2)cc1 | inconclusive: 39.8 µM [activator, single point] | 
CC(=O)NCCNc1ncnc2ccc(-c3ccccc3C(F)(F)F)cc12 |  | inactive: -2.94%
Nc1ncnc(Nc2cc(Cl)cc(Cl)c2)c1[N+](=O)[O-] | inconclusive: 25.1 µM [inhibitor, single point] | 
CCCOP(=O)(OCCC)C1(Nc2ccc(C)cc2)CCCCC1 | inconclusive: 31.6 µM [activator, single point] | 
CCOC(=O)c1c(NC(=S)Nc2ccccc2)sc2c1CC(C)(C)SC2 | active: 12.6 µM | 
O=c1[nH]c(N/N=C/c2ccc(O)cc2)nc2ccccc12 | inconclusive: 31.6 µM [inhibitor, single point] | 

Compound | Potency | max response, negative = inhibition
Cc1cccc(C)c1NC(=S)NN1CCN(C)CC1 | inconclusive: 3.98 µM [inhibitor, single point] | 
O=C(O)C/C=C\CC(=O)O |  | inactive: -4.36%
CCOc1cccc2cc(-c3nc4sc5c(c4c(=O)[nH]3)CCC(C)C5)c(=O)oc12 (centres undefined) |  | inactive: 4.41%
Cc1ccc(C2N3CC4([N+](=O)[O-])CN2CC([N+](=O)[O-])(C3)C4(C)C)cc1 (centres undefined) | inconclusive: 39.8 µM [inhibitor, single point] | 
COc1ccc(OCC(=O)NC(=S)Nc2ccc3c4c(cccc24)CC3)cc1 | inconclusive: 39.8 µM [inhibitor, single point] | 
COc1cccc(Cn2c(=O)n(-c3ccc(Br)cc3F)c(=O)c3sc4ccccc4c32)c1 | active: 12.6 µM | 
COc1ccc(-c2noc(N3CCC(C(=O)Nc4ccc(C)c(F)c4)CC3)n2)cc1OC |  | inactive: 4.18%
CC(=O)n1cc(/C=C2/N=C(c3ccccc3)OC2=O)c2ccccc21 | active: 20 µM | 
CCOC(=O)C1CCN(C(=O)c2cc3c(-c4ccc(OC)c(OC)c4)nn(C)c3s2)CC1 | inconclusive: 25.1 µM [activator, single point] | 
COc1ccc(CNC(=O)c2cccc(NC(=O)N3CCSc4ncccc43)c2)cc1 | inconclusive: 39.8 µM [inhibitor, single point] | 
COc1ccc(-n2c(SCC(N)=O)nnc2-c2ccc(NS(=O)(=O)c3ccc(C)cc3)cc2)cc1 | inconclusive: 31.6 µM [activator, single point] | 
COc1ccc(Cl)cc1NC(=O)CCCn1c(C)c2cnn(-c3ccccc3)c(=O)c2c1C | inconclusive: 31.6 µM [activator, single point] | 
Cc1ccc(Cl)cc1N1C(=O)N(Cc2ccc(C#N)cc2)c2ccccc2S1(=O)=O |  | inactive: -51%
COc1ccc(C2=Nc3ccc(C)cc3NC(c3ccc(Cl)cc3)=N2)cc1 | inconclusive: 20 µM [inhibitor, single point] | 
N#C/C(=C(/O)CSc1ccccc1C(=O)O)c1nc2ccccc2s1 |  | inactive: -3.08%
CN1C(=O)/C(=C2\SC(N)=NC2=O)c2ccccc21 | inconclusive: 39.8 µM [inhibitor, single point] | 
COc1ccc2ccccc2c1C1CC(=O)N2CN(C)CSC2=C1C#N (centres undefined) | inconclusive: 39.8 µM [activator, single point] | 
O=C(c1ccc2c(c1)N(Cc1ccc(F)cc1)C(=O)c1ccccc1S2(=O)=O)N1CCC(Cc2ccccc2)CC1 |  | inactive: -5.46%
O=C(CCN1CCc2ccccc2C(c2ccccc2)C1)c1ccc2c(c1)OCCO2 (centres undefined) | active: 15.8 µM | 
O=C(CSc1ccc2ccccc2n1)Nc1nsc(-c2ccc(Cl)cc2)n1 | active: 31.6 µM | 
CCC1CCC2(CC1)NNC(=S)NN2 | inconclusive: 2.51 µM [inhibitor, partial curve] | 
COC(=O)c1c(NC(=O)CN2CCN(S(=O)(=O)c3ccccc3[N+](=O)[O-])CC2)sc2c1CCC(C)C2 (centres undefined) | active: 10 µM | 
COc1cc(OC)c(NC(=O)Nc2ccccc2OCc2cc(=O)n3cc(C)ccc3n2)cc1Cl | inconclusive: 6.31 µM [activator, single point] | 

Compound | Potency | max response, negative = inhibition
CCc1ccc(S(=O)(=O)c2nnn3c2nc(NC2CCCC2)c2sccc23)cc1 |  | inactive: 14.3%
COc1ccc(-n2c(C)cc(-c3csc(N)n3)c2C)cc1 | active: 20 µM | 
COc1ccc2nc(SCC(=O)Nc3ccc(S(=O)(=O)N4CCCC4)cc3)c(C#N)cc2c1 | active: 12.6 µM | 
CCCCCCCCCCC(C)(C)C(=O)Nc1c(OC)cc(OC)cc1OC | inconclusive: 25.1 µM [activator, single point] | 
Cc1cccc(NC(=O)CN2C(=O)N/C(=C/c3ccc(C)s3)C2=O)c1 | active: 3.98 µM | 
COc1ccc(C(=O)/C=C/Nc2ccc([N+](=O)[O-])cc2C)cc1OC | inconclusive: 25.1 µM [activator, single point] | 
O=C(Nc1ccc(O)c(-c2nc3ccccc3o2)c1)c1ccco1 |  | inactive: -8.52%
Cn1cc(/C=N/n2cnc3scc(-c4ccccc4)c3c2=O)c2ccccc21 | inconclusive: 6.31 µM [inhibitor, single point] | 
CCCCCc1ccc(S(=O)(=O)NCCc2ccncc2)cc1 |  | inactive: -5.51%
COc1ccc(NC(=O)Cc2c(SC)c3ccccc3n2Cc2ccccc2)cc1 | inconclusive: 39.8 µM [inhibitor, single point] | 
CSc1nc(-c2ccc(Cl)cc2)nn1S(=O)(=O)c1ccc(Cl)cc1 | inconclusive: 39.8 µM [inhibitor, single point] | 
O=c1cc(O)c2sc(Nc3ccc(F)cc3)nc2[nH]1 | inconclusive: 39.8 µM [inhibitor, single point] | 
CCCCCCCCCCCCC/C=C\[C@@H](O)[C@H](CO)NC(C)=O | inconclusive: 10 µM [activator, full curve] | 
Cc1ccc(-c2ccc(/C=N/N3C(=O)C4C5C=CC(C6CC56)C4C3=O)o2)c([N+](=O)[O-])c1 (centres undefined) | inconclusive: 39.8 µM [inhibitor, single point] | 
CCCCCCCC/C=C\CCCCCCCC(=O)N[C@@H](CO)Cc1ccc(O)cc1 | inconclusive: 25.1 µM [activator, partial curve] | 
Cc1ccc(-c2c3c([nH]c(=S)c2C#N)CCCC3)o1 | inconclusive: 39.8 µM [inhibitor, single point] | 
CCc1ccccc1NC(=O)Nc1nnc(N2CCCC2)s1 | inconclusive: 31.6 µM [activator, single point] | 
COC(=O)CCC(=O)c1oc2ccc(Br)cc2c1N | inconclusive: 31.6 µM [inhibitor, single point] | 
Cc1cc(-c2ccccc2)n(-c2ccc(C(=O)N3CCN(c4ncccn4)CC3)cc2)n1 | inconclusive: 31.6 µM [activator, single point] | 
O=C(CC1N=C2c3ccccc3N=C(SCC(=O)Nc3cccc(C(F)(F)F)c3)N2C1=O)NCc1cccs1 (centres undefined) |  | inactive: 10.5%
CCCCCC(=O)Nc1nc(C)c(-c2csc(Nc3cc(Cl)ccc3OC)n2)s1 | active: 3.16 µM | 
O=C(Nc1cccc(Cl)c1)c1ccc2c(=O)n3c(nc2c1)CCCCC3 | inconclusive: 39.8 µM [inhibitor, single point] | 
COc1ccc(C(=O)Oc2ccc(/C=N/NC(=O)Cc3ccc([N+](=O)[O-])cc3)cc2)cc1 | inconclusive: 39.8 µM [inhibitor, single point] | 
